Results published in PubChem BioAssay AID1159614 (National Center for Advancing Translational Sciences (NCATS), 2016).
Screen size: about 45,000 compounds; about 65 (0.1%) were called active. Calls follow the shape of the dose curve; as a rule, active = well fitted activation curve with a large enough effect; inconclusive = small, poorly fitted or top-dose-only effect; inactive = no such curve, though single readings can be large or run the other way. The list shows a part of the results. Numbered stars: 1 amine (or outer) side, 2 acyl side, 3 side chain; on linkers, the order of the positions; unused ones are H or OH. Bridge positions count the residues as written; N and C are the ends. Square brackets hold non-standard residues; d marks the D form. Peptide text beside a SMILES is read from it. * marks the point of attachment. ξ: configuration not given here. ΔAla(3-NHCONH2) = NC(=O)NC=C(N)C(=O)O; X1 = NC1=NCCC(C(N[*:1])C(=O)[*:2])N1; ξβ3hOrn = NCCCC(N)CC(=O)*; Dap = NC[CH](N)C(=O)O

Biological target: Galactocerebrosidase (Homo sapiens) (UniProt P54803)
Experiment: A Novel Cell-Based Assay to Identify Small Molecules for B -Galactocerebrosidase; also: 0% is about no effect; nearly all actives have a fitted effect of over 65% in size
Conditions: 145M-Twi-hGALC-G270D cells (Twitcher mouse brain line with human GALC G270D), HMU-beta-Gal fluorescence, 48 h; series mostly up to 57.5 µM; activation: at the top concentration
Outline: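 Brain-derived Twitcher mouse 145M-Twi cells stably expressing human GALC-G270D or wild-type GALC, treated live, then residual GALC activity read by fluorescence of HMU-b-Gal substrate (0.1 mM final) in citrate-phosphate buffer pH 5.2 with sodium taurocholate. Signal increase indicates enhancement.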

Sequence of UniProt P54803 (P54803 whole entry, looked up): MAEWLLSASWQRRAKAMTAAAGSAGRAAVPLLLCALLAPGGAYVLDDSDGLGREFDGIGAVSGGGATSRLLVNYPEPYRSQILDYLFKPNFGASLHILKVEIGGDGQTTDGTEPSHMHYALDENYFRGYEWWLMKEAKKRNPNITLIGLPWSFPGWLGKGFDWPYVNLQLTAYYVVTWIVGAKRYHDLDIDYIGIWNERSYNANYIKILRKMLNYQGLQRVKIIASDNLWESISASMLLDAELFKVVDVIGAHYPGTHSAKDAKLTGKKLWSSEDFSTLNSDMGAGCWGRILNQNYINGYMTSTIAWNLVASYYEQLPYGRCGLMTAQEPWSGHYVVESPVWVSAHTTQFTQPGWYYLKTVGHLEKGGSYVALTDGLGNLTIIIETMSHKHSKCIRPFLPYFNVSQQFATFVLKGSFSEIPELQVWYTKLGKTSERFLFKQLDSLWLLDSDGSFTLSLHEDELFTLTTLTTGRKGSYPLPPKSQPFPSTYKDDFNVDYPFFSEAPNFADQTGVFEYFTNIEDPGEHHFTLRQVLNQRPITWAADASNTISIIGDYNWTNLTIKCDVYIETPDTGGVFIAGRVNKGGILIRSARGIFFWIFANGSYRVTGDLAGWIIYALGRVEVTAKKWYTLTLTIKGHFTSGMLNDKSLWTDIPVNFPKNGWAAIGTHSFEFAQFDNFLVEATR

activation, inactive:
COc1ccc(C(=O)c2oc3ccccc3c2NC(=O)COc2cccc(C)c2C)cc1 -24.7%, Cc1ccc(OC(=O)CSc2nnc(-c3cccs3)o2)cc1 -6.98%, CNC(=O)c1c(NC(=O)/C=C/c2ccccc2Cl)sc2c1CCC2 -11.2%, CCn1c(=O)c2sccc2n2c(CCC(=O)N3CCN(c4ccc(C(C)=O)cc4)CC3)nnc12 1.38%, Cc1ccccc1C(=O)N(Cc1nc(-c2ccc(Cl)cc2)no1)C(C)C -11.8%, CCOc1ccccc1NC(=O)Cn1c(=O)n(Cc2ccccc2)c(=O)c2cccnc21 -1.75%, CC(=O)Nc1ccccc1-c1nc2ccccc2n(Cc2cccc(Br)c2)c1=O -19.1%, CCOC(=O)C(C)NC(=O)C1CCN(c2ncnc3c2nc2n3CCCCC2)CC1 (configuration not stated) -9.4%, Cc1cc(C)c(NC(=O)Cn2nnc(-c3ccccc3)n2)c(C)c1 -9.59%, Cc1cc(S(=O)(=O)NCC(c2ccco2)S(=O)(=O)c2ccccc2)ccc1F (configuration not stated) -13.6%, O=C(Cn1ccc2cc(S(=O)(=O)N3CCCCC3)ccc21)NCc1cccc(Cl)c1 2.76%, CC1CCC(NC(=O)c2cc3c(Cl)nc4ccccc4c3s2)CC1 (configuration not stated) -21.1%, CCc1nnc(NC(=O)C(=O)c2cc(C)n(-c3ccccc3)c2C)s1 -7.42%, CC(C)N(Cc1ccccc1)C(=O)Cn1ncc2c([nH]c3ccccc32)c1=O -3.75%, O=C(CN1CCCN(Cc2ccccc2Cl)S1(=O)=O)NCc1ccccc1 -10.3%, Cc1cccn2c(=O)cc(COc3cccc(NC(=O)COc4ccc(F)cc4)c3)nc12 -11.1%, Cc1ccc(NC(=O)N2CCC(c3ccccc3)C2)cc1C (configuration not stated) 1.33%, Cc1ccc(-c2nonc2NC(=O)c2ccc(F)cc2)cc1C -5.4%, Cc1cccc(NC(=O)CSc2c(C)cnc3c2c(=O)n(C)c(=O)n3C)c1C -7.41%, O=S(=O)(NCC(c1ccco1)N1CCOCC1)c1cc(F)ccc1F (configuration not stated) -6.55%, O=C(CSc1nc2c([nH]c3ccccc32)c(=O)n1-c1ccc(Cl)cc1)N1CCOCC1 -23.3%, CCC1CCCCN1CC(=O)Nc1cc(C)c2c(=O)oc3ccccc3c2n1 (configuration not stated) -9.78%, Cc1cc(C)cc(NC(=O)C2CCCN(C(=O)c3cnn(-c4ccccc4)c3-n3cccc3)C2)c1 (configuration not stated) -13.9%, CCCOc1ccc(C(=O)N(Cc2ccc(N(C)C)cc2)CC2CCCO2)cc1 (configuration not stated) -6.35%, NCCCC(N)CC(=O)NCC1NC(=O)C(CO)NC(=O)C(N)CNC(=O)C(C2CCN=C(N)N2)NC(=O)C(=CNC(N)=O)NC1=O (stereo not drawn) (H-[Dap]S[Dap](ξβ3hOrn)[ΔAla(3-NHCONH2)][X1]; lactam 1-C; configuration not given here) -15.9% [at 0.46 µM], CC1=C(C(=O)Nc2ccccc2)C(CC(C)C)n2nc(SCc3ccccc3C)nc2N1 (configuration not stated) -0.988%, O=C(c1cc2c(s1)-c1ccccc1OC2)N1CCN(c2ccccc2)CC1 -13.8%, CCc1nn(C(CC)C(=O)NCc2ccc(F)cc2)c(=O)c2cc3occc3n12 (configuration not stated) -5.45%, COc1cc(C(=O)NCC(c2ccco2)S(=O)(=O)c2ccccc2)cc(OC)c1OC (configuration not stated) -16.4%, O=C(CCc1ccccc1)N(Cc1cccnc1)c1nc2c(F)cccc2s1 -7.72%, Cc1ccc(Nc2c(-c3ccc(O)cc3)nc3cccc(C)n23)cc1 6.11%, Cc1cccc(NC(=O)CSc2nncn2C)c1 9.55%, Cc1nc(-c2ccc(Cl)cc2)sc1CCNC(=O)c1cccs1 -17.1%, Cc1ccc(C(=O)Nc2ccc(OCc3cc(=O)n4c(C)csc4n3)cc2)cc1 7.32%, Cc1ccc(NC(=O)Cc2csc(C)n2)c(C)c1 -1.15%, CCCN(CCC)CCCNC(=O)Cn1ncc2c3ccccc3n(Cc3ccccc3)c2c1=O -12.8%, O=C(c1ccc2c(c1)N(Cc1ccccc1)C(=O)c1ccccc1S2(=O)=O)N1CCCCCC1 -10.5%, Cc1ccc(S(=O)(=O)c2c(Nc3cc(F)ccc3F)sc(C(=O)c3ccc(F)cc3)c2N)cc1 -12.5%, CC(=O)Nc1nonc1-c1nnc(SCC(=O)Nc2cc(C)cc(C)c2)n1-c1ccccc1 0.285%, CCCOc1ccc(-c2nc(SC)[nH]c(=O)c2C#N)cc1OC -18.1%, CCN(CC)CCN(C(=O)c1ccco1)c1nc2ccc(Br)cc2s1 -11.8%, Cc1ccccc1Nc1ncnc2c1cnn2C -12.6%, Cc1cccc(C(=O)N2CCc3cc(CNS(=O)(=O)c4ccc(Cl)s4)ccc32)c1 -11%, Cc1ccccc1OCC(=O)Nc1ccc(-c2nc3ncccc3o2)cc1 8.5%, CCCCN(CC)CCNC(=O)c1cc2c(=O)[nH]c3ccccc3c2n1C -9.13%, Cc1c(Cl)cccc1NC(=O)CN(CCc1ccccc1)S(=O)(=O)c1ccccc1 -14.8%, CCOc1ccc(CNCc2c(C(=O)O)n(Cc3ccc(C)cc3)c3cc(C)ccc23)cc1 -2.05%, Cc1ccccc1CN1C(=O)c2ccccc2Sc2ccc(C(=O)N3CCCC3)cc21 -8.84%, CCCc1nc2ccccc2n2c(-c3ccccc3)c3c(=O)n(C)c(=O)n(C)c3c12 -17%, CCCCn1c(NCc2ccc(OC)cc2O)nc2ccccc21 -13.7%, O=C(NCc1ccc(F)cc1)c1ccc2c(O)c(S(=O)(=O)c3ccccc3)c(=O)[nH]c2c1 -22.6%, CCCCn1nc(NC(=O)c2cccc(Cl)c2)c2cc3ccccc3nc21 -8.35%, O=C(NCc1ccccc1)c1ccc(CSc2nc3cccnc3n2Cc2cccc(F)c2)cc1 -10.1%, COc1ccc(C)cc1-n1nnc(-c2nc(-c3ccccc3Cl)no2)c1N -8.26%, Cc1ccccc1NS(=O)(=O)c1ccc2[nH]cc(C(=O)N3CCCCC3)c(=O)c2c1 -12.4%, Cc1ccc(-c2nnn3c2nc(NCCc2ccc(Cl)cc2)c2ccccc23)cc1 -11.9%, CCN(C(=O)c1coc(=O)c2ccccc12)c1ccccc1C -9.48%, CC(C)c1ccc(C(=O)Nc2cc(-c3ccccc3F)nn2-c2ccccc2)cc1 -14.5%, CCCOc1ccc(CNC(=O)Cn2ncn3c(cc4sc(CC)cc43)c2=O)cc1 -9.04%, COC(=O)c1ccc(NC(=O)NCCn2nnc3cc(S(=O)(=O)N(C)C)ccc32)cc1 -9.45%, CCOc1ccc(CNC(=O)c2ccc3nc(C(C)C)oc3c2)cc1 -9.82%, COc1ccc(Nc2cc(C(=O)NC3CCC(C)CC3)c3ccccc3n2)cc1OC (configuration not stated) -2.64%
